Data on 45 sequences can be found in the supplement of paper PMC11417369.

Some of the results follow.

The test deals with PfSIP2 AP2 domain 1 (GST-tagged). Kind of test: gcPBM binding intensity (ln(normalized median fluorescence intensity)); higher = stronger DNA binding. A digest of the protocol: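 The binding buffer was 1× PBS containing 1% milk, 0.2 mg/ml BSA, 0.5% salmon testes DNA and 0.03% Triton X-100. In it, GST-tagged P. falciparum DNA-binding domains expressed in E. coli were applied for 1 h to an Agilent 4 × 180k array of primer-extended double-stranded 36-bp intergenic genomic probes plus negative controls. Binding intensity, read with Alexa488 anti-GST antibody and a 488 nm scan, is the highest Masliner-normalised natural-log median intensity across replicate spots of either probe orientation.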
For “ACATATAAATTATATACACACAATAATATATATATA [CACACA_site1384]”, the “gcPBM binding intensity (ln)” value worked out at 8.84.

For “ATAATGTTTCTTTCAACACACAAAAAATGAACCCAT [CACACA_site4947]”, the “gcPBM binding intensity (ln)” value turned out to be 7.38.

In the case of “TATTTATAAAAAAAATGTACATTTATGTATAAGCTA [XGTACX_site3266]”, the “gcPBM binding intensity (ln)” value is 6.99.

For the sequence “AATATCAATATTATATGTACTTATAATTTCAATGTA [XGTACX_site2423]”, the “gcPBM binding intensity (ln)” value amounted to 6.97.

On to “TAAATTTATTAATCAAGTACAAAATAAATTTTTATA [XGTACX_site2745]”, for which the “gcPBM binding intensity (ln)” value turned out to be 6.8.

“TATATATAGAAACACACACACACATATATATATATA [CACACA_site4116]”: the “gcPBM binding intensity (ln)” value turned out to be 9.25.

In the case of “AAAATTTAATATAATGCACACATAAAAAAAAAATCA [CACACA_site7882]”, the “gcPBM binding intensity (ln)” value is 7.33.

On to “ATCATGTTATATATATGTACTAATAATATAATATAA [XGTACX_site1326]”, for which the “gcPBM binding intensity (ln)” value worked out at 7.09.

Regarding “ATATATATATATATATGGTAAAGTAAAAGGAAATAC [XGTACX_negctrl_site45]”, the “gcPBM binding intensity (ln)” value is 9.62.

Consider “TACTAACTTTTTAAAAGTACAGAACCATAACCATAA [XGTACX_site7182]”, for which the “gcPBM binding intensity (ln)” value worked out at 7.04.

Turning to “GAATAATCTAGAAACACACAAACACGACAAAAGAAA [CACACA_site4135]”, the “gcPBM binding intensity (ln)” value was 7.01.

Regarding “AGTTTATATTATTAAAGTACATATATATATTCTTAA [XGTACX_site3164]”, the “gcPBM binding intensity (ln)” value was determined as 7.

For the sequence “AGTCGAATGATGTACACACATACAAAACATTTATGC [CACACA_site4022]”, the “gcPBM binding intensity (ln)” value worked out at 6.93.

On to “TATATATTATAAAAGAGTACAGAAAGAAAAAAAAAT [XGTACX_site8305]”, for which the “gcPBM binding intensity (ln)” value came out at 7.47.

With “ATATTCAATATATTATGTACACATATATGAGGATAT [XGTACX_site7019]”, the “gcPBM binding intensity (ln)” value came to 7.15.

For “AAACTTTTTTTAAAAACACACATATATATTTATATA [CACACA_site4092]”, the “gcPBM binding intensity (ln)” value stood at 6.97.

“AGTATATTAATATAATGTACAAACGTTTATTTTGTA [XGTACX_site5980]”: the “gcPBM binding intensity (ln)” value amounted to 6.89.

On to “GTTTAAAATCTTTGCACACATATAAATAAATATATT [CACACA_site2555]”, for which the “gcPBM binding intensity (ln)” value amounted to 7.6.

Regarding “AAATATCTACATATTTGTACATATTTATACATATTT [XGTACX_site6300]”, the “gcPBM binding intensity (ln)” value came out at 6.93.

With “AGCAACCCCCTAGCTACACACATATAGATATAAATA [CACACA_site6577]”, the “gcPBM binding intensity (ln)” value stood at 7.65.

On to “GAAAAGTAGACAATATGTACATATAGTATTTATAAA [XGTACX_site878]”, for which the “gcPBM binding intensity (ln)” value is 6.89.

For “ATATTTTCAGTTCTCCATTATGTTCCCATTATTTTT [CACACA_negctrl_site990]”, the “gcPBM binding intensity (ln)” value turned out to be 7.25.

On to CATGAATATTTTAATGTGCACATTTATCATTATATG, for which the “gcPBM binding intensity (ln)” value worked out at 8.69.

Take “CCAAACTAAATGTACACACATACATAAATATAAATA [CACACA_site1141]”: the “gcPBM binding intensity (ln)” value is 7.27.

Consider “ATGTAATAAATATACACACACAAATATATATATATA [CACACA_site2395]”, for which the “gcPBM binding intensity (ln)” value came out at 9.5.

Turning to “ACCTATGTATATTATACACACTCCAAACTATTCTTT [CACACA_site6939]”, the “gcPBM binding intensity (ln)” value amounted to 7.25.

Consider “ATATTATATAACTTTTGTACGAACTATTTTATATAT [XGTACX_site6]”, for which the “gcPBM binding intensity (ln)” value is 6.97.

As for “TTTAGAGAAGTCAAGTGTACATATAAAATAATTCAC [XGTACX_site4997]”, the “gcPBM binding intensity (ln)” value amounted to 7.01.

Regarding “AAAAAAAAATATATATGTACATATGTATAATAAAAA [XGTACX_site2110]”, the “gcPBM binding intensity (ln)” value worked out at 7.08.

As for “AATGAAGACTTTTTTACACACTTCATATATTATATA [CACACA_site2034]”, the “gcPBM binding intensity (ln)” value turned out to be 6.74.

For “TATTTATTTATATATGCATGCTAATAATTATAACAT [TGCATGCA_site988]”, the “gcPBM binding intensity (ln)” value is 6.98.

On to “GTATAATTGGAAATTACACACCTTATAATGTAACAT [CACACA_site6091]”, for which the “gcPBM binding intensity (ln)” value came out at 6.9.

As for “AATGATTTTAAAAAATGTACTTTATAAACAAAATTA [XGTACX_site3803]”, the “gcPBM binding intensity (ln)” value is 6.98.

For the sequence “TAAAGTGTCAAATTCACACACATATATATATATATA [CACACA_site1380]”, the “gcPBM binding intensity (ln)” value is 9.38.

As for “TTTTTTTTTGTTAGTTGTACGTTAAATGAATTTACT [XGTACX_site7675]”, the “gcPBM binding intensity (ln)” value was 6.83.

On to “TAAATTAGAATAAATACACACAAATTAGAATTCTAT [CACACA_site7781]”, for which the “gcPBM binding intensity (ln)” value is 6.83.

Regarding “TAACCAAAAAAAAATATTTAAAATAAATATATATAT [CACACA_negctrl_site1516]”, the “gcPBM binding intensity (ln)” value is 8.92.

Consider “TATTTTCTCTTAAAAAGTACTCATATATACATTTAT [XGTACX_site7748]”, for which the “gcPBM binding intensity (ln)” value is 6.89.

For “TTTAGTTCATACTATGCACACTACGTATATTTTTAA [CACACA_site5484]”, the “gcPBM binding intensity (ln)” value is 7.08.

Consider “ATAACATACATAACAACACACAATATTTATAGGTAT [CACACA_site6243]”, for which the “gcPBM binding intensity (ln)” value was found to be 7.12.

For the sequence “CGTTATATATTTTATAGTACTTTTTGTAAATTTTTT [XGTACX_site7682]”, the “gcPBM binding intensity (ln)” value stood at 7.14.

In the case of “ATTAATAAGAAGAAAAGTACAAAACAAAAAGATATA [XGTACX_site7473]”, the “gcPBM binding intensity (ln)” value worked out at 7.14.

Consider “TGTTCTAATATTTGTTGTACGTTTACGTTTCTCTCT [XGTACX_site18]”, for which the “gcPBM binding intensity (ln)” value was determined as 6.87.

With “AACATTTTAAAATAATGTACTTGAAAAAAAAACTAC [XGTACX_site8894]”, the “gcPBM binding intensity (ln)” value was 7.12.

Turning to “CATATAAATAAATATACATGCATACATACATATATA [TGCATGCA_site713]”, the “gcPBM binding intensity (ln)” value turned out to be 6.9.
